The text below walks through data of the supplement of paper PMC8285479.

This test relates to NCI-H1944. The experiment in a line: normalised cell viability (NPI; 0 = phenylarsine oxide control, 1 = DMSO control) (fraction of DMSO control); NCI-H1944 is a non-small cell lung cancer line; higher = more viable cells (less compound toxicity). The note with it: 6 days.
Setting [1] is: glucocorticoid arm: hydrocortisone 2.75 uM co-treatment, compound 1 µM.
Where [2] appears, read: glucocorticoid arm: hydrocortisone 2.75 uM co-treatment, compound 5 µM.
Setting [3] is: glucocorticoid arm: hydrocortisone 2.75 uM pre-treated 2 days and continued, compound 1 µM.
Setting [4] is: glucocorticoid arm: hydrocortisone 2.75 uM pre-treated 2 days and continued, compound 5 µM.
Setting [5] is: glucocorticoid arm: vehicle, compound 1 µM.
[6] abbreviates: glucocorticoid arm: vehicle, compound 5 µM.

Structures can show the parent of a compound that is named as a salt. ± gives the standard deviation of the averaged measurements. The full ranking holds about 1,900 compounds; the median of “normalised cell viability (NPI; 0 = phenylarsine oxide control, 1 = DMSO control)” is about 1, and the lowest 2% start at about 0.039. Some of the results follow.
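Note: CTB read-out in 384-well plates, mean of triplicate wells, normalised per plate against 1 µM phenylarsine oxide and 0.1% DMSO, compounds added 24 h after seeding.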

Consider `CCNC(=O)C[C@@H]1N=C(c2ccc(Cl)cc2)c2cc(OC)ccc2-n2c(C)nnc21`, for which the normalised cell viability is, setting by setting: under setting [1], 0.957 ± 0.03; under setting [2], 0.993 ± 0.074; under setting [3], 0.906 ± 0.074; under setting [4], 0.9773 ± 0.0038; under setting [5], 1.01 ± 0.024; under setting [6], 0.945 ± 0.012.
Turning to `C[N+](C)(C)CCCCCCCCCC[N+](C)(C)C` [Decamethonium dibromide], the normalised cell viability was 1.004 ± 0.0098 under setting [1]; 0.976 ± 0.014 under setting [2]; 0.99967 ± 0.00058 under setting [3]; 0.9817 ± 0.0081 under setting [4]; 0.98967 ± 0.00058 under setting [5]; 0.992 ± 0.0017 under setting [6].
Take `C[N+](C)(C)CCCCCCCCCC[N+](C)(C)C` [Decamethonium Bromide]: the normalised cell viability worked out at 1.023 ± 0.0058 under setting [1]; 1.04 ± 0.02 under setting [2]; 1.03 ± 0.017 under setting [3]; 1.02 ± 0.026 under setting [4]; 1.01 ± 0.01 under setting [5]; 1.013 ± 0.0058 under setting [6].
For `c1ccc2nc(N3CCNCC3)ccc2c1` [Quipazine dimaleate], the normalised cell viability was determined as 0.996 ± 0.004 under setting [1]; 0.996 ± 0.03 under setting [2]; 0.882 ± 0.21 under setting [3]; 1.03 ± 0.02 under setting [4]; 0.9913 ± 0.0035 under setting [5]; 0.997 ± 0.0027 under setting [6].
As to `O=C1NCN(c2ccccc2)C12CCN(CC1COc3ccccc3O1)CC2` (stereo unspecified) [Spiroxatrine], the normalised cell viability reads like this: under setting [1], 0.98 ± 0.0046; under setting [2], 0.98 ± 0.012; under setting [3], 1 ± 0.018; under setting [4], 0.9933 ± 0.007; under setting [5], 0.9847 ± 0.0078; under setting [6], 0.9713 ± 0.0067.
For `CN1C[C@H](C(=O)N[C@]2(C)O[C@@]3(O)[C@@H]4CCCN4C(=O)[C@H](Cc4ccccc4)N3C2=O)C[C@@H]2c3cccc4[nH]cc(c34)C[C@H]21` [Dihydroergotamine methanesulfonate], the normalised cell viability was found to be 0.991 ± 0.0072 under setting [1]; 0.984 ± 0.012 under setting [2]; 0.9897 ± 0.0042 under setting [3]; 0.996 ± 0.025 under setting [4]; 0.995 ± 0.002 under setting [5]; 0.997 ± 0.002 under setting [6].
For the compound `CC1C2Cc3ccc(O)cc3C1(C)CCN2CC1CC1` (single isomer, unassigned; (+)) [(+)-Cyclazocine], the normalised cell viability stood at 1.001 ± 0.0085 under setting [1]; 1.003 ± 0.0058 under setting [2]; 1 ± 0.01 under setting [3]; 0.978 ± 0.013 under setting [4]; 1.01 under setting [5]; 0.9993 ± 0.0095 under setting [6].
In the case of `C[N+]1(C)[C@@H]2CC[C@H]1C[C@@H](OC(=O)C(CO)c1ccccc1)C2` (stereo partly specified) [Atropine methyl bromide], the normalised cell viability reads like this: under setting [1], 0.988 ± 0.0053; under setting [2], 0.989 ± 0.011; under setting [3], 1 ± 0.0084; under setting [4], 1 ± 0.015; under setting [5], 0.974 ± 0.0087; under setting [6], 0.983 ± 0.017.
`C[N+]1(C)[C@@H]2CC[C@H]1C[C@@H](OC(=O)C(CO)c1ccccc1)C2` (stereo partly specified) [Atropine methyl nitrate]: the normalised cell viability under setting [1] came out at 0.976 ± 0.0066; the normalised cell viability under setting [2] is 1.001 ± 0.0078; the normalised cell viability under setting [3] came out at 0.9843 ± 0.0093; the normalised cell viability under setting [4] was 1.01 ± 0.021; the normalised cell viability under setting [5] was determined as 0.9787 ± 0.0091; the normalised cell viability under setting [6] came to 0.989 ± 0.0046.
Consider `CC(CCc1ccccc1)NC(C)C(O)c1ccc(O)cc1` (stereo unspecified) [Nylidrin hydrochloride], for which the normalised cell viability is, setting by setting: under setting [1], 0.987 ± 0.011; under setting [2], 0.955 ± 0.0096; under setting [3], 1.007 ± 0.0058; under setting [4], 1.03 ± 0.08; under setting [5], 1.003 ± 0.0058; under setting [6], 1.01 ± 0.017.
For `Cc1c(C(=O)c2cccc3ccccc23)c2cccc3c2n1[C@H](CN1CCOCC1)CO3` [( R)-(+)-WIN 55,212-2 mesylate], the normalised cell viability amounted to 1.004 ± 0.01 under setting [1]; 0.0209 ± 0.0039 under setting [2]; 1.01 ± 0.029 under setting [3]; 0.016 ± 0.002 under setting [4]; 1.013 ± 0.0058 under setting [5]; 0.00693 ± 0.00096 under setting [6].
As to `O=C(O)CNC(=O)c1c(O)c2ccccc2n(Cc2ccccc2)c1=O`, the normalised cell viability reads like this: under setting [1], 0.9887 ± 0.004; under setting [2], 1.03 ± 0.015; under setting [3], 1 ± 0.023; under setting [4], 1.02 ± 0.015; under setting [5], 0.995 ± 0.0027; under setting [6], 1.01.
For `CCCN1C[C@H](CSC)C[C@@H]2c3cccc4[nH]cc(c34)C[C@H]21` [Pergolide methanesulfonate], the normalised cell viability runs as follows: under setting [1], 0.971 ± 0.002; under setting [2], 0.988 ± 0.011; under setting [3], 0.999 ± 0.036; under setting [4], 1.02 ± 0.017; under setting [5], 0.973 ± 0.0027; under setting [6], 0.9703 ± 0.0057.
Turning to `CCCN1C[C@H](CSC)C[C@@H]2c3cccc4[nH]cc(c34)C[C@H]21` [Pergolide mesylate], the normalised cell viability reads like this: under setting [1], 1.03 ± 0.011; under setting [2], 0.993 ± 0.029; under setting [3], 1.027 ± 0.0058; under setting [4], 1.02; under setting [5], 1.007 ± 0.0058; under setting [6], 0.984 ± 0.012.
In the case of `CCCCc1ccc(C(=O)O)nc1` [Fusaric acid], the normalised cell viability under setting [1] is 1.01 ± 0.012; the normalised cell viability under setting [2] stood at 0.9917 ± 0.0051; the normalised cell viability under setting [3] was 1.002 ± 0.0072; the normalised cell viability under setting [4] is 0.985 ± 0.032; the normalised cell viability under setting [5] is 1.01; the normalised cell viability under setting [6] was determined as 0.99967 ± 0.00058.
For the compound `OC1CCCCC1N1CCC(c2ccccc2)CC1` (racemic) [(±)-Vesamicol hydrochloride], the normalised cell viability stood at 0.9747 ± 0.0049 under setting [1]; 0.91 ± 0.021 under setting [2]; 0.875 ± 0.21 under setting [3]; 0.978 ± 0.022 under setting [4]; 0.9897 ± 0.0025 under setting [5]; 0.9897 ± 0.0076 under setting [6].
